Assay results reported in PubChem BioAssay AID1030 (National Center for Advancing Translational Sciences (NCATS), 2008).
The campaign covered roughly 220,000 compounds. About 16,000 (7.3%) were called active. The shares of active, inactive and inconclusive entries below differ from those in the screen. Calls come from the whole dose curve; as a rule, active = well fitted inhibition curve with a large enough effect (not every such curve was filed as active); inconclusive = small, poorly fitted or top-dose-only effect, or another doubt; inactive = no such curve, though single readings can be large or run the other way. A potency beside an inconclusive call is a rough fit, not a confirmed value.

Target: Aldehyde dehydrogenase 1A1 (Homo sapiens) (UniProt P00352)
Assay: qHTS Assay for Inhibitors of Aldehyde Dehydrogenase 1 (ALDH1A1);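 for activity, negative = inhibition: plate controls were no enzyme wells and a reference inhibitor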
Settings: Purified ALDH1A1, NADH fluorescence, propionaldehyde substrate; series mostly up to 75.3 µM; activity, negative = inhibition: at the top concentration
Potency is the fitted concentration of half-maximal effect; tags give direction and shape of the fitted curve.

Chain of UniProt P00352 (P00352 whole entry, looked up): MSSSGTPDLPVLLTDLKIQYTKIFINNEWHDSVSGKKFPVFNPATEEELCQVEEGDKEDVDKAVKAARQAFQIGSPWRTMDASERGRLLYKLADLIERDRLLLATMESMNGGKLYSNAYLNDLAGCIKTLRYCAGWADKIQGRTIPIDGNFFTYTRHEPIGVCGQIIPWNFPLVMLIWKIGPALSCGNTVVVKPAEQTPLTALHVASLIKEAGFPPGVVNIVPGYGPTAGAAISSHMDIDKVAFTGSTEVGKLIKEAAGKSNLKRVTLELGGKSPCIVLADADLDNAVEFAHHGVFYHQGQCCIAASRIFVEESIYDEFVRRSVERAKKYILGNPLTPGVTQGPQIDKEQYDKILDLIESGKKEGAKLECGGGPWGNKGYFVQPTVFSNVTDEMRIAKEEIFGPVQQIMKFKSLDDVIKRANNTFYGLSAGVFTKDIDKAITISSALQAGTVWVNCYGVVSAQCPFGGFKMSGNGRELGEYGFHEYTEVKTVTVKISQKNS

activity, negative = inhibition, inactive:
N#C/C(=C\c1ccc(O)c([N+](=O)[O-])c1)C(=O)NCc1ccccc1 -10.8%
CCOc1ccc(C(=O)c2ccc(OC)c(O)c2O)cc1 -4.28%
CCOC(=O)Cc1cc(-c2ccc(F)cc2)nc2ccc3ccccc3c12 -9.01%
O=C(Oc1cccc(OC(=O)N2CCCCC2)c1)N1CCCCC1 -1.2%
C/C(CCc1ccc2c(c1)OCO2)=N\N=C1\NC(=O)CC(C(=O)Nc2ccccc2)S1 (stereo not given) 4.79%
COc1cc(OC)cc(-n2nnnc2SCC(=O)Nc2ccc(C(C)=O)cc2)c1 -0.99%
COC(=O)c1ccccc1NC(=O)CSCC(=O)Nc1ccccc1OC 5.76%
CCOC(=O)C1=C(C)N(c2ccc(C)c(C)c2)C(=O)/C1=C\c1ccco1 0.166%
CC(C)CO/N=C1/C[C@@H](O)[C@@H](O)[C@@H]2[C@@H]3C(=O)N(Cc4ccc5c(c4)OCO5)C(=O)[C@H]3CC[C@@H]12 7.99% [at 13.5 µM]
CC(C)(C)NS(=O)(=O)c1ccc(Oc2ncc(C(F)(F)F)cc2Cl)cc1 -4.91%
O=C(NN1CCCCC1)c1cccc2ccccc12 2.86%
COc1ccccc1C1N(c2cc(Cl)ccc2OC)C(=O)C2CCCN21 (stereo not given) 20.4%
O=C(O)c1sc2cc(C(F)(F)F)cnc2c1-c1ccccc1 2.63%

Potency, inconclusive:
Cn1c(SCC(=O)N2CCCC2)nc2ccccc21 39.8 µM [inhibitor, single point]
O=c1c(CCc2ccccc2)nc2cnc(N3CCOCC3)nc2n1Cc1cccs1 8.91 µM [inhibitor, partial curve]
COc1cc([N+](=O)[O-])ccc1NC(=O)CC1SC(=Nc2ccc(F)cc2)N(CCC2=CCCCC2)C1=O (stereo not given) 39.8 µM [inhibitor, single point]
COC(=O)c1ccccc1OCCOCCOc1cccc2cccnc12 25.1 µM [inhibitor, partial curve]
Cc1ccc(CN(C(=O)Cn2nnc3ccccc32)C(C(=O)NCc2ccco2)c2cccs2)cc1 (stereo not given) 15.8 µM [inhibitor, partial curve, poor fit]
CN1CCN(c2ccc(Cl)cc2NC(=O)c2cccc(S(=O)(=O)N(C)C)c2)CC1 39.8 µM [inhibitor, single point]
COc1cccc(-c2cc(C(=O)N3CCc4ccccc4C3)no2)c1 39.8 µM [inhibitor, single point]
O=C1c2ccccc2C(=O)N1CCc1nc(-c2ccc(Cl)cc2)no1 44.7 µM [inhibitor, single point]
COc1cc([N+](=O)[O-])ccc1NC(=S)Nc1cccc(C(=O)O)c1 22.4 µM [inhibitor, partial curve]
Cc1cc(C)cc(NC(=S)N2CCC(c3nc4ccccc4s3)CC2)c1 44.7 µM [inhibitor, single point]
COc1ccc2ncc(S(=O)(=O)c3ccccc3)c(N3CCN(c4ccccc4)CC3)c2c1 10 µM [inhibitor, partial curve]
CCCCOc1ccc(C(=O)N/N=C/c2cn[nH]c2-c2ccc(OC)c(OC)c2)cc1 28.2 µM [inhibitor, single point]
COCCNC(=O)C(c1ccc(C)o1)N(CCOC)C(=O)Cn1nnc2ccccc21 (stereo not given) 39.8 µM [inhibitor, single point]
O=C(c1cccs1)N1CCN(c2nnc(-c3ccccc3)c3ccccc23)CC1 11.2 µM [inhibitor, partial curve]
CCCc1cc2c(OC(=O)CC)c(-c3ccc(C(=O)OCC)o3)c(=O)oc2cc1OC 28.2 µM [inhibitor, partial curve]
O=C1C(=O)N(c2ccccc2)C(c2ccccc2[N+](=O)[O-])/C1=C(\O)c1ccccc1 (stereo not given) 39.8 µM [inhibitor, single point]
COc1ccc(NC(=O)CSc2nnc(CNC(=O)c3ccco3)n2-c2ccccc2OC)cc1 37.7 µM [inhibitor, partial curve, poor fit]
Clc1nc(Cl)nc(N(c2ccccc2)c2ccccc2)n1 39.8 µM [inhibitor, single point]
COCc1ccc(C(=O)N2CCCC(CCC(=O)NCc3ccccc3F)C2)o1 (stereo not given) 39.8 µM [inhibitor, single point]
COCCn1c(-c2ccc(OC)cc2)nc2ccccc21 39.8 µM [inhibitor, single point]
O=C(NNC(=S)NC(=O)c1cccs1)c1cccnc1 44.7 µM [inhibitor, single point]
CN1CCN(c2ncc3ncc(=O)n(Cc4cccs4)c3n2)CC1 39.8 µM [inhibitor, single point]
O=C(NCCC1=CCCCC1)c1cc(-c2ccncc2)nc2ccccc12 8.91 µM [inhibitor, partial curve]
N#Cc1c(N)nc(SCC(=O)NCc2ccc3c(c2)OCO3)c(C#N)c1-c1cccs1 39.8 µM [inhibitor, single point]
CCn1c(SCC(=O)c2ccccc2)nnc1-c1cc2cc(Br)ccc2o1 35.5 µM [inhibitor, single point]

Potency, active:
COc1cc(OC)c(C2CC(=O)N3CN(c4ccccc4C)CSC3=C2C#N)cc1OC (stereo not given) 3.98 µM
COc1cccc(C(=O)N/N=c2\oc3c(OC)cccc3cc2C(=O)NCc2ccccc2)c1 0.316 µM
N#Cc1cccc(-c2nc(NCCN3CCOCC3)c3ccccc3n2)c1 17.8 µM
CSc1nnc2c3ccccc3n(CCc3ccccc3)c2n1 8.91 µM
O=S1(=O)CC/C(=N\Nc2ccccc2)c2ccsc21 25.1 µM
CCOc1cc(C2NC(=O)NC(O)(C(F)(F)F)C2C(=O)c2ccc(OC)cc2)ccc1O (stereo not given) 5.62 µM
Cc1cc(OCC(=O)Nc2ccc(F)c(F)c2)nc(C(C)C)n1 25.1 µM
